# Laboratory results reported in the supplement of paper PMC11417369.
# ± gives the standard deviation of the averaged measurements. Some of the results follow.
# System: PfAP2-G AP2 domain (GST-tagged)
# Test: gcPBM binding intensity (ln(normalized median fluorescence intensity)); higher = stronger DNA binding
# Procedure, shortened: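 GST-tagged P. falciparum DNA-binding domains produced in E. coli were incubated for 1 h on an Agilent 4 × 180k array of primer-extended double-stranded 36-bp intergenic genomic probes with negative controls. Binding intensity is the highest Masliner-normalised natural-log median intensity across replicate spots of either probe orientation, with bound protein detected by Alexa488 anti-GST antibody at 488 nm.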
row,Sequence,gcPBM binding intensity (ln)
1,ATCGTAGTATAATATGAACACACACCCACCCACAAA [CACACA_site8616],10.7 ± 0.34
2,TATATTCCACTCATTGATTTTCTCTTCTCACAAAAA [CACACA_negctrl_site1016],10.1 ± 0.19
3,TATAAAAAAAAATGTGGTACATATTTCCATTTTCCA [XGTACX_site4571],11.3 ± 0.76
4,TATATAAATATACACCCACACACATATATATATATA [CACACA_site9247],10.4 ± 0.55
5,AATAATTTAATACATACACACGTATATCTTTTTTTT [CACACA_site8632],9.955 ± 0.078
6,TATATATATAACATATGTACATATATTTATAAATAC [XGTACX_site5484],11.2 ± 0.62
7,ATTATAAAAAAGAAACGTACATATTTATTGTTTTTT [XGTACX_site2161],11.2 ± 0.74
8,TTATTTTTATTATAAATTATAAAATATAAATAAATA [GTGCAC_negctrl_site616],9.51 ± 0.13
9,TAAATCCGCACGCACACACACATATTAATAAAAAAA [CACACA_site7800],10.6 ± 0.47
10,CATGAATTTTTTTAATGTACATTCACATCATAAAAA [XGTACX_site7475],11.1 ± 0.6
11,ATATATTATATATATAGTACGTATATAAATTTAATT [XGTACX_site5041],11 ± 0.69
12,GAAACTATGTAATGCACACCAAAATAAAATTATTAA [CACACA_site1904],10.1 ± 0.071
13,TCTTCTTAACCAACTATGAAAAGGAAAAATATAACA [GTGCAC_negctrl_site565],10 ± 0.18
14,TATAATAATACTTATTGTACTATTAGTTTAATTCAT [XGTACX_site6638],11.1 ± 0.67
15,TAATATAGAAAATGCATACACACTTTATATATATAT [CACACA_site911],9.9 ± 0.11
16,AGACGATAAATCATTCATTCATTTACCATCCAAAAA [CACACA_negctrl_site802],9.78 ± 0.057
17,TTTTAATTAGTACAAACACACATATACAGACAAAAA [CACACA_site2563],11.2 ± 0.69
18,AATATATATTAATACACACACACATATATATATATA [CACACA_site3786],10.3 ± 0.47
19,TGATCATAGAAACACACACACAAAAAAAAAAAAAAA [CACACA_site4008],9.78 ± 0.47
20,TACTATTATTATTGCACACTTATTATCCCTCGGATA [CACACA_site162],10.1 ± 0.16
21,AAAATTTTTTTTGGCGCACACTAATAATAAAATATA [CACACA_site470],10.7 ± 0.57
22,TAAAACTTATACAAATGTACAAATATATATATATAT [XGTACX_site4661],10.5 ± 0.4

row,Sequence,gcPBM binding intensity (ln)
1,CTTTTTAATGAATACACACACACACCGATATATATA [CACACA_site5296],10.2 ± 0.29
2,GAATAATATGGACATACACACATATACATACCTATA [CACACA_site7075],10.9 ± 0.63
3,AAATATTATTGACGATGTACTTCTATTCATAAGTAT [XGTACX_site3964],11.3 ± 0.89
4,TTCTTTTTTATTTATACATGCAATAAAAAATTGATT [TGCATGCA_site730],9.925 ± 0.064
5,TTTTTTTAAAACAAAAAAAAAAAAAAAAAAAAAAAA [TGCATGCA_negctrl_site418],9.84 ± 0.4
6,TTGATAAAATCACTGGTGCATGTAGATATATAATAT,10.06 ± 0.042
7,AAGAGAGAGAAATATGCACACATAAGGGAAATAAAT [CACACA_site8300],10.1 ± 0.19
8,TATATATGTATGTATGTACACACAAAAAATGGAATA [CACACA_site9235],11.4 ± 0.85
9,GGATACATATGTAAAAGTACACATGAATATATACAT [XGTACX_site6469],11.5 ± 1
10,GTAAAATTAAAAATAACACACAAAAAAAAAAAAAAA [CACACA_site800],9.67 ± 0.37
11,TTATTATTAGAAAAAAGTACACATATAAAATGTTAC [XGTACX_site6426],11.5 ± 1.1
12,AAAAAAAAAAGAAAAAGTACATACATACATATATAT [XGTACX_site6405],11.3 ± 0.83
13,ATTAATATTTAGACTTGTACATATATAATATATGTC [XGTACX_site3766],10.9 ± 0.64
14,ATAAAATATCAATACCGTACACAAGCAGGTAAAATA [XGTACX_site3719],11 ± 0.67
15,CTTTTTTGTAATAACACACACACAAACAGAAAAAAT [CACACA_site2075],10.5 ± 0.35
16,AATATAAATATAAATTGTACTTAAAAATTTCACGCA [XGTACX_site5234],11.1 ± 0.86
17,TTAAAAAACTATAATACACACCAAAAATATGCACAT [CACACA_site7079],10.4 ± 0.11
18,TCCTTTTGAACCCTTTTTCTCACAAGACCTTTATAT [TGCATGCA_negctrl_site413],10.3 ± 0.12
19,TTTCGTTGTGTATTTTGTACATATTTTTAATTATAT [XGTACX_site6687],10.9 ± 0.39
20,AAAAAAATAATGTACACACACATATATGTTTATATA [CACACA_site6234],11.4 ± 0.92
21,AATTAAAAAGTTTTTAATGTTTTTAATTTTTTCCAC [XGTACX_negctrl_site423],9.79 ± 0.25
22,AAAGGTGTATTTAATACACACGTGTCATTAAAATTG [CACACA_site4508],10.3 ± 0.13

row,Sequence,gcPBM binding intensity (ln)
1,TATATAAATTATGTGAGTACATAATTTAGAAGGAAC [XGTACX_site2807],11.4 ± 1.1
2,AAGAAAAAGATGCGCATACACACAGATGAATAACAA [CACACA_site1627],10.2 ± 0.13
3,TTTCTTTTTTAAATTAAAATTTTTTTTTTTTTCGGT [TGCATGCA_negctrl_site52],9.55 ± 0.028
4,TTATTTCAAAGTTGTTGTACAAAAATATATTTATAA [XGTACX_site5226],11.3 ± 0.52
5,TATAACAAAAAAAAATAAAAAATAAAACTATATATA [CACACA_negctrl_site504],9.555 ± 0.007
6,GTTATTATATATATGTGTACTTAAAAATTTTATGTC [XGTACX_site6084],11.4 ± 0.95
7,TTTTTTTTTTATTCTTCACACATTTCCAATAAAAAA [CACACA_site5601],10.2 ± 0.2
8,ACCTAAAATAACTACACACACATAAAAAAAAAAAAA [CACACA_site2529],10.1 ± 0.47
9,AAAGAAGGGAAACACACACACACACCCACAAAAAAA [CACACA_site3766],10.3 ± 0.33
10,AAAAAAAAAAAAAAAACACACAGAAATATATATATA [CACACA_site4611],10.1 ± 0.26
11,AATAAAAAAAAAATAAATTTAATAATAATAATAAAA [CACACA_negctrl_site569],9.29 ± 0.32
12,TTTATATATTTTAGGAGTACATTAAATTATACCTTA [XGTACX_site5600],11.5 ± 0.89
13,TGTATATATATTTATGCATGCTGTGTGTATTCTTTT [TGCATGCA_site74],9.98 ± 0.22
14,TTTCTTTTTATATTCACACATAAATATATATATATA [CACACA_site6053],10.1 ± 0.23
15,AAAAAAAAAAAACACACACACACATACCCATACATA [CACACA_site5575],10.2 ± 0.26
16,TATATAAGGAAATATTGTACTTTTATATTTATATTA [XGTACX_site3814],11.1 ± 0.77
17,ATATAAAAATATAATACACACATAAAATATATTATA [CACACA_site969],9.84 ± 0.042
18,TGCTCTCTCTTGTTGTGTACATAATACAATATATAT [XGTACX_site7427],11.3 ± 0.87
19,TGTATGCTTACATAATGTACGGAAAAATAAAGGCAT [XGTACX_site6923],11.2 ± 0.78
20,ATATATAAATAATGTTGTACGTATTTCAAAAGTATG [XGTACX_site3363],11.5 ± 0.95
21,ATAATAATAATAAAAAGTACAAATTATTATATATAT [XGTACX_site5160],11 ± 0.67
22,TACATTTAAAAAAAAACACACATATATATATATATA [CACACA_site2535],9.96 ± 0.53

row,Sequence,gcPBM binding intensity (ln)
1,ATATATTTGTATAATAGTACGTACAGGCAAAATATA [XGTACX_site7396],11.5 ± 0.86
2,TAATAATTTTTTTTTTTTTTTTACGAAAATATGATT [GTGCAC_negctrl_site323],9.59 ± 0.2
3,TAATTATTTTCGGTACGTACTAATGTATATATAATT [XGTACX_site3895],11.5 ± 0.85
4,AACGTCTTTTTTTTTTTTTTTCTTTTTTTTTTTATT [CACACA_negctrl_site303],9.57 ± 0.11
5,ATAATAAGAACTCAGTGTACTATCCTTTGAATTAAC [XGTACX_site8117],11.1 ± 0.69
6,ATATTTATTCAATCCAGTACATATTATATATTGTAT [XGTACX_site184],10.6 ± 0.35
7,ATAAAATTATATACGTGTACATATATATATTTATGT [XGTACX_site4653],11.4 ± 0.77
8,TAATTCTTGTAAAATGTGCGCAGTAGATATAGTTTT,10.3 ± 0.14
9,AGATATAAGAAAAGCACACACACACTAGAAAAAAAA [CACACA_site5559],10.1 ± 0.11
10,TTGCAAAATTGTTTTATCACAAATATATACTTAATA [CACACA_negctrl_site403],9.88 ± 0.16
11,TATAAAAGTGGACACACACACATATATATATATATA [CACACA_site4673],11.3 ± 0.82
12,ACACATCAAATATAAAAAAAAAATAACTATAAATAA [CACACA_negctrl_site587],9.655 ± 0.007
13,CCTTTAAGCAAAAACACACACACATATTTATTTATA [CACACA_site6294],9.99 ± 0.14
14,AATTTTTTTTTTTTGTTGCACTTTTAGAGTTTTAAT [GTGCAC_site9519],10.2 ± 0.38
15,TAATAAATAGGACACACACACATATTTATATATCAT [CACACA_site6771],10.9 ± 0.63
16,TATATATATATGTATGCATGTTGTTTTTTATTTAAT [TGCATGCA_site343],10 ± 0.61
17,CTATATTTCGTTGGACGTACAAATGTGATAATTAGG [XGTACX_site3232],11.6 ± 0.91
18,TTATTATTTGGTTATAGTACATAATATAATATATAT [XGTACX_site6911],11 ± 0.72
19,ACATATGTATAATATGCACACGTCATTTTCCCCTTA [CACACA_site5194],10.05 ± 0.064
20,ACTAAACTTATATGTACACACATATAACATTAATTT [CACACA_site2258],11.5 ± 1.1
21,TTTCTTTTTTCACGTGCATGCCATTTAAGTATTAAT [TGCATGCA_site651],10.4 ± 0.21
22,TTTGTTTGGTTTTGGTGTACTTTTTTTTTTTTTTCT [XGTACX_site2050],11.6 ± 1
